Some of these densities may be calculated back from excess volumes.
Assay: xn = mol fraction of the nth substance listed
Conditions: 100 kPa

Compound CN(C)C=O + CC[n+]1ccn(C)c1.O=S(=O)([O-])C(F)(F)F has a mass density (303.15 K, x1 = 1) of 939.2 kg/m3, a mass density (308.15 K, x1 = 1) of 934.7 kg/m3 and a mass density (313.15 K, x1 = 1) of 929.6 kg/m3. For the same compound, the mass density (318.15 K, x1 = 1) was 924.8 kg/m3 and the mass density (323.15 K, x1 = 1) was 920 kg/m3.

CC[n+]1ccn(C)c1.O=S(=O)([O-])C(F)(F)F + CN(C)C=O showed a mass density (298.15 K, x2 = 0.0917) of 1363.5 kg/m3, a mass density (298.15 K, x2 = 0.2995) of 1318.9 kg/m3 and a mass density (298.15 K, x2 = 0.406) of 1290 kg/m3. The mass density (298.15 K, x2 = 0.5094) was 1257.3 kg/m3, the mass density (298.15 K, x2 = 0.5976) was 1224.2 kg/m3 and the mass density (298.15 K, x2 = 0.6947) was 1179.9 kg/m3. For the same compound, the mass density (298.15 K, x2 = 0.7981) was 1119.6 kg/m3, the mass density (298.15 K, x2 = 0.8957) was 1047.2 kg/m3 and the mass density (303.15 K, x2 = 0.0917) was 1359.4 kg/m3. For the same compound, the mass density (303.15 K, x2 = 0.1933) was 1339.1 kg/m3, the mass density (303.15 K, x2 = 0.2995) was 1314.7 kg/m3 and the mass density (303.15 K, x2 = 0.5094) was 1253.2 kg/m3. For the same compound, the mass density (303.15 K, x2 = 0.5976) was 1219.8 kg/m3, the mass density (303.15 K, x2 = 0.6947) was 1175.4 kg/m3 and the mass density (303.15 K, x2 = 0.7981) was 1115.1 kg/m3. For the same compound, the mass density (303.15 K, x2 = 0.8957) was 1042.6 kg/m3, the mass density (308.15 K, x2 = 0.0917) was 1355.3 kg/m3 and the mass density (308.15 K, x2 = 0.1933) was 1335.1 kg/m3. The mass density (308.15 K, x2 = 0.2995) was 1310.7 kg/m3, the mass density (308.15 K, x2 = 0.5094) was 1249 kg/m3 and the mass density (308.15 K, x2 = 0.5976) was 1215.7 kg/m3. The mass density (308.15 K, x2 = 0.6947) was 1171.2 kg/m3, the mass density (308.15 K, x2 = 0.7981) was 1110.6 kg/m3 and the mass density (308.15 K, x2 = 0.8957) was 1038.3 kg/m3. The mass density (313.15 K, x2 = 0.0917) was 1351.2 kg/m3, the mass density (313.15 K, x2 = 0.1933) was 1331 kg/m3 and the mass density (313.15 K, x2 = 0.2995) was 1306.5 kg/m3. It also gave a mass density (313.15 K, x2 = 0.406) of 1277.4 kg/m3, a mass density (313.15 K, x2 = 0.5094) of 1244.6 kg/m3 and a mass density (313.15 K, x2 = 0.6947) of 1166.5 kg/m3. For the same compound, the mass density (313.15 K, x2 = 0.8957) was 1033.3 kg/m3, the mass density (318.15 K, x2 = 0.406) was 1273.2 kg/m3 and the mass density (318.15 K, x2 = 0.5094) was 1240.4 kg/m3. It also gave a mass density (318.15 K, x2 = 0.5976) of 1207.1 kg/m3, a mass density (318.15 K, x2 = 0.7981) of 1101.4 kg/m3 and a mass density (318.15 K, x2 = 0.8957) of 1028.7 kg/m3. For the same compound, the mass density (323.15 K, x2 = 0.0917) was 1343 kg/m3, the mass density (323.15 K, x2 = 0.1933) was 1322.8 kg/m3 and the mass density (323.15 K, x2 = 0.2995) was 1298.2 kg/m3. The mass density (323.15 K, x2 = 0.406) was 1269.2 kg/m3, the mass density (323.15 K, x2 = 0.5094) was 1236.3 kg/m3 and the mass density (323.15 K, x2 = 0.5976) was 1202.8 kg/m3. It also gave a mass density (323.15 K, x2 = 0.7981) of 1096.9 kg/m3 and a mass density (323.15 K, x2 = 0.8957) of 1024 kg/m3.

CC[n+]1ccn(C)c1.O=S(=O)([O-])C(F)(F)F + OCCO gave a mass density (298.15 K, x2 = 0.0943) of 1370.6 kg/m3, a mass density (298.15 K, x2 = 0.2021) of 1359.1 kg/m3 and a mass density (298.15 K, x2 = 0.2937) of 1347.8 kg/m3. The mass density (298.15 K, x2 = 0.408) was 1330.8 kg/m3, the mass density (298.15 K, x2 = 0.5013) was 1313 kg/m3 and the mass density (298.15 K, x2 = 0.6019) was 1289.5 kg/m3. For the same compound, the mass density (298.15 K, x2 = 0.6917) was 1264.3 kg/m3, the mass density (298.15 K, x2 = 0.8964) was 1182.6 kg/m3 and the mass density (303.15 K, x2 = 0.2021) was 1355.2 kg/m3. For the same compound, the mass density (303.15 K, x2 = 0.2937) was 1343.8 kg/m3, the mass density (303.15 K, x2 = 0.408) was 1327 kg/m3 and the mass density (303.15 K, x2 = 0.5013) was 1309.4 kg/m3. For the same compound, the mass density (303.15 K, x2 = 0.6019) was 1286.2 kg/m3, the mass density (303.15 K, x2 = 0.6917) was 1260.8 kg/m3 and the mass density (303.15 K, x2 = 0.798) was 1223.7 kg/m3. For the same compound, the mass density (303.15 K, x2 = 0.8964) was 1179.1 kg/m3, the mass density (308.15 K, x2 = 0.0943) was 1362.4 kg/m3 and the mass density (308.15 K, x2 = 0.2021) was 1351.2 kg/m3. It also gave a mass density (308.15 K, x2 = 0.2937) of 1339.9 kg/m3, a mass density (308.15 K, x2 = 0.408) of 1323.2 kg/m3 and a mass density (308.15 K, x2 = 0.5013) of 1305.8 kg/m3. It also gave a mass density (308.15 K, x2 = 0.6917) of 1257.4 kg/m3, a mass density (308.15 K, x2 = 0.798) of 1220.3 kg/m3 and a mass density (313.15 K, x2 = 0.0943) of 1358.4 kg/m3. It also gave a mass density (313.15 K, x2 = 0.2021) of 1347.3 kg/m3, a mass density (313.15 K, x2 = 0.2937) of 1336 kg/m3 and a mass density (313.15 K, x2 = 0.5013) of 1302.3 kg/m3. It also gave a mass density (313.15 K, x2 = 0.6019) of 1279.2 kg/m3, a mass density (313.15 K, x2 = 0.6917) of 1253.9 kg/m3 and a mass density (313.15 K, x2 = 0.798) of 1216.9 kg/m3. The mass density (313.15 K, x2 = 0.8964) was 1171.9 kg/m3, the mass density (318.15 K, x2 = 0.2021) was 1343.4 kg/m3 and the mass density (318.15 K, x2 = 0.2937) was 1332.2 kg/m3. For the same compound, the mass density (318.15 K, x2 = 0.408) was 1315.7 kg/m3, the mass density (318.15 K, x2 = 0.5013) was 1298.7 kg/m3 and the mass density (318.15 K, x2 = 0.6019) was 1275.9 kg/m3. It also gave a mass density (318.15 K, x2 = 0.6917) of 1250.7 kg/m3, a mass density (318.15 K, x2 = 0.798) of 1213.8 kg/m3 and a mass density (318.15 K, x2 = 0.8964) of 1168.4 kg/m3. The mass density (323.15 K, x2 = 0.2937) was 1328.4 kg/m3, the mass density (323.15 K, x2 = 0.5013) was 1295.1 kg/m3 and the mass density (323.15 K, x2 = 0.6019) was 1272.6 kg/m3. For the same compound, the mass density (323.15 K, x2 = 0.6917) was 1247.4 kg/m3, the mass density (323.15 K, x2 = 0.798) was 1210.6 kg/m3 and the mass density (323.15 K, x2 = 0.8964) was 1164.9 kg/m3.

Compound OCCO + CC[n+]1ccn(C)c1.O=S(=O)([O-])C(F)(F)F has a mass density (303.15 K, x1 = 1) of 1106.2 kg/m3, a mass density (313.15 K, x1 = 1) of 1099.1 kg/m3 and a mass density (323.15 K, x1 = 1) of 1092 kg/m3.

From a compilation of properties of binary mixtures (doi:10.1016/j.molliq.2018.09.007)
